The compounds below were run against Noro protease (Norovirus, UniProt Q83883) (assay: Norovirus protease inhibition assay (Noro-Norwalk FRET protease assay)). Conditions: IC50 (μM), peptide substrate 10 μM, 90 minutes at 37° C., compounds 200 μM to 10.2 nM.

Compared with `CC(C)C[C@H](NC(=O)O[C@@H](c1cccc(F)c1)C(C)(C)c1cccc(Cl)c1)C(=O)N[C@@H](C[C@@H]1CCNC1=O)C(=O)C(=O)NC1CC1` [Compound C285], `CC(C)C[C@H](NC(=O)OC(c1cccc(Cl)c1)C(C)(C)c1cccc(Cl)c1)C(=O)N[C@@H](C[C@@H]1CCNC1=O)C(=O)C(=O)NC1CC1` (some centres unmarked) [Compound C286] is 1.8-fold lower in IC50: 27.1 µM for the first, 15.2 µM for the second. The second is the more potent here.

Going from `CCN1CCN(C(=O)C(=O)[C@H](C[C@@H]2CCNC2=O)NC(=O)[C@H](CC(C)C)NC(=O)OC(c2ccccc2)C(C)(C)c2cccc(Cl)c2)CC1` (some centres unmarked) [Compound C287] to `CC(C)C[C@H](NC(=O)OC(c1ccccc1)C(C)(C)c1cccc(F)c1)C(=O)N[C@@H](C[C@@H]1CCNC1=O)C(=O)C(=O)NC1CC1` (some centres unmarked) [Compound C296], the IC50 falls from > 200 µM to 115 µM. The second is the more potent here.

`CC1(C)CC(CC(NC(=O)[C@H](CC2CCCCC2)NC(=O)OC(c2cccc(Cl)c2)C(C)(C)c2cccc(Cl)c2)C(=O)C(N)=O)C(=O)N1` (some centres unmarked) [Compound C288] and `CCCCC[C@H](NC(=O)OC(c1ccccc1)C(C)(C)c1cccc(Cl)c1)C(=O)N[C@@H](C[C@@H]1CCNC1=O)C(=O)C(=O)NC1CC1` (some centres unmarked) [Compound C289] are within 1.5-fold of each other in IC50: 119 µM for the first, 86 µM for the second.

Going from `O=C(N[C@@H](CC1CCCCC1)C(=O)NC(CC1CC2(CCC2)NC1=O)C(=O)C(=O)NC1CC1)OCc1cccc(Cl)c1` (stereo partly drawn) [Compound C290, 3-Chlorobenzyl ((2S)-3-cyclohexyl-1-((4-(cyclopropylamino)-3,4-dioxo-1-(6-oxo-5-azaspiro[3.4]octan-7-yl)butan-2-yl)amino)-1-oxopropan-2-yl)carbamate] to `CC(C)C[C@H](NC(=O)OC(c1ccccc1)C1(c2cccc(Cl)c2)CCCC1)C(=O)N[C@@H](C[C@@H]1CCNC1=O)C(=O)C(=O)NC1CC1` (some centres unmarked) [Compound C297], the IC50 rises from 93.2 µM to ≥ 217 µM. The first is the more potent here.

First: CC(C)C[C@H](NC(=O)OC(c1ccccc1)C1(c2cccc(Cl)c2)CCCCC1)C(=O)N[C@H](C=O)C[C@@H]1CCNC1=O (some centres unmarked) [Compound C291]
Second: CC(C)C[C@H](NC(=O)OC(c1ccc(Cl)cc1)C1(c2cccc(Cl)c2)CCCC1)C(=O)N[C@H](C=O)C[C@@H]1CCNC1=O (some centres unmarked) [Compound C293]
The IC50 of the first is 3.5-fold lower: 2.5 µM for the first, 8.7 µM for the second. The first is the more potent here.

Going from `CC(C)C[C@H](NC(=O)OC(c1ccc(F)cc1)C1(c2cccc(Cl)c2)CC1)C(=O)N[C@@H](C[C@@H]1CCNC1=O)C(=O)C(=O)NC1CC1` (some centres unmarked) [Compound C292] to `CC(C)C[C@H](NC(=O)OC(c1ccc(Cl)cc1)C1(c2cccc(Cl)c2)CCCC1)C(=O)N[C@@H](C[C@@H]1CCNC1=O)C(=O)C(=O)NC1CC1` (some centres unmarked) [Compound C298], the IC50 rises from 90.5 µM to ≥ 218 µM. The first is the more potent here.

Compared with `CC(C)C[C@H](NC(=O)OC(c1ccccc1)C1(c2cccc(Cl)c2)CCC1)C(=O)N[C@@H](C[C@@H]1CCNC1=O)C(=O)C(=O)NC1CC1` (some centres unmarked) [Compound C294], `CCC(CC)(c1cccc(Cl)c1)C(OC(=O)N[C@@H](CC(C)C)C(=O)N[C@H](C=O)C[C@@H]1CCNC1=O)c1ccccc1` (some centres unmarked) [Compound C295] is 35-fold lower in IC50: 177 µM for the first, 5.1 µM for the second. The second is the more potent here.

Source: patent publication US20230159453A1 (COCRYSTAL PHARMA, INC., priority 2020, published 2023)
